Assay results published in paper PMC4336329 (PLoS ONE, 2015).
Out of some 310,000 compounds screened, about 14,000 (4.5%) showed an effect of 50% or more. Effects have a minus sign here. Some of the results follow.

target: human ether-à-go-go-related gene (hERG) potassium channel (human, UniProt Q12809); assay: primary screen, population patch clamp on CHO cells stably expressing hERG
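Also: peak tail current of the secondary pulse compared with the same well before compound.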

Chain of human ether-à-go-go-related gene (hERG) potassium channel (Q12809 whole entry, looked up): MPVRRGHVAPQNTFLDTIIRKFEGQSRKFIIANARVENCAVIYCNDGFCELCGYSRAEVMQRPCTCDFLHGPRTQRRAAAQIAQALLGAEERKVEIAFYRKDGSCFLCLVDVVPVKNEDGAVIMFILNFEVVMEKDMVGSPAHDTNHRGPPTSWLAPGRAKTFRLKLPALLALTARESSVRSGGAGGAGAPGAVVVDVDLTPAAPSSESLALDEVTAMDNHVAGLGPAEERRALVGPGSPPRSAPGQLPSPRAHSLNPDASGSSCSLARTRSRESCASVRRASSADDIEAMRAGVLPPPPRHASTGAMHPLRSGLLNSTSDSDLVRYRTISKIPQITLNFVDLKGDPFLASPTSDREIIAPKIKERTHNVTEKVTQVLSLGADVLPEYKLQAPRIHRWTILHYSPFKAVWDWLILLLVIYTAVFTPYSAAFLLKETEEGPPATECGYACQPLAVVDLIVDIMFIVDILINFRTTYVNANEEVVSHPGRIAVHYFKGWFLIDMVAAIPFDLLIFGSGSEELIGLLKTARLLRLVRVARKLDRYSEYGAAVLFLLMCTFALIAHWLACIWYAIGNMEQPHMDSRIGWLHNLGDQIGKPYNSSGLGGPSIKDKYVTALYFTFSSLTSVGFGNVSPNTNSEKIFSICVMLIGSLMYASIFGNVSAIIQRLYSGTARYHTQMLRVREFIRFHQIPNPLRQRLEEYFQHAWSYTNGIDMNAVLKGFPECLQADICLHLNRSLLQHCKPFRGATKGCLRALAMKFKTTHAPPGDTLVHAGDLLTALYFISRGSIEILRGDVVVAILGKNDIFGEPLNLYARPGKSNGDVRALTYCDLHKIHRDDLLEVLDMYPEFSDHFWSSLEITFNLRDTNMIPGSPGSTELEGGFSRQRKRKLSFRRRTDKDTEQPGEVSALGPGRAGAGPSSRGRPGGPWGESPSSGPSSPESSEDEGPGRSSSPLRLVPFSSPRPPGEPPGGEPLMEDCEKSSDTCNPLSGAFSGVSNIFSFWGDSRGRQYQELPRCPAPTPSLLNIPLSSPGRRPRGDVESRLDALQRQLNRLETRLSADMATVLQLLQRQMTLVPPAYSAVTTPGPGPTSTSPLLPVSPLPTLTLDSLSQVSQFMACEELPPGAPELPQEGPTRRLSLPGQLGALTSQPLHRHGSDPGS

Row | Compound | hERG current change (%, negative = inhibition) at 10uM [%]
1 | CC1CCCN(C(=O)Cn2c(=O)oc3ccccc32)C1 (stereo not drawn) | 12.4
2 | COCCNC(=O)C1CC(c2cccc(F)c2)=NO1 (stereo not drawn) | 2.78
3 | COc1ccc(/C=C/c2nnc(NC(=O)CSc3ccc(C)cc3)s2)cc1 | 17.4
4 | CC1CCN(C(=O)COC(=O)CNC(=O)C23CC4CC(CC(C4)C2)C3)CC1 | 4.93
5 | COC(CN(C(=O)CCl)C(C(=O)NC1CCCCC1)c1ccc(Cl)cc1)OC (stereo not drawn) | 2.73
6 | Cl.N=C(N)SCc1ccccn1 | -8.71
7 | CC1CN(C(=O)c2cc(Br)c(Br)s2)CC(C)O1 (stereo not drawn) | -11.8
8 | Cc1nn(Cc2ccccc2)c(C)c1NC(=O)Cn1nc([N+](=O)[O-])c(Cl)c1C | -10.4
9 | N#CC(C#N)=C(Nc1ccc(F)cc1)SCc1cccc(Br)c1 | 2.1
10 | Cc1cc(C)c(Nc2ncnc(N)n2)c(C)c1 | 8.86
11 | COc1ccc(CCOC(=O)c2cccc(NC(C)=O)c2)cc1 | 5.93
12 | COC(=O)c1ccc(NCCC(=O)O)cc1 | -4.87
13 | COC(=O)c1sc(S(=O)(=O)N2CC(C)OC(C)C2)c(C(=O)OC)c1C (stereo not drawn) | -10.7
14 | Cc1cc(Br)c2[nH]c3c(c2c1)CCCC3=O | -5.11
15 | O=C(N/N=C\c1ccncc1)c1ccc(Br)s1 | 13
16 | COc1cccc(/C=N/NC(=O)C(=O)NCc2ccco2)c1OC | 11
17 | Cc1cccc(C)c1OCc1cc(C(=O)NC2CCC2)no1 | 15.7
18 | O=c1[nH]c(C2CCN(S(=O)(=O)c3ccc([N+](=O)[O-])cc3)CC2)nc2c1nnn2Cc1ccccc1 | 27.5
19 | Cc1c(C2(O)C(=O)Nc3ccc(F)cc32)c(=O)n(-c2ccccc2)n1C (stereo not drawn) | 0.582
20 | COC(=O)c1ccc(OC(=O)CCc2cc(OC)c(OC)c(OC)c2)cc1 | 9.54
21 | O=C(COc1ccc(Cl)cc1)Nc1cccc(S(=O)(=O)NCc2ccco2)c1 | -42.7

Row | Compound | hERG current change (%, negative = inhibition) at 10uM [%]
22 | CC(=O)Nc1ccc(S(=O)(=O)NC2(C(F)(F)F)C(=O)Nc3c2c(=O)[nH]c(=O)n3C)cc1 (stereo not drawn) | -5.06
23 | O=C(CCNC(=O)c1ccco1)Nc1ccc(N2CCOCC2)cc1 | 9.59
24 | COc1cc(/C=C/C(=O)C2C(=O)C=C(C)OC2=O)cc(OC)c1O (stereo not drawn) | 4.63
25 | O=C(C1CCCN(S(=O)(=O)c2ccc(Br)s2)C1)N1CCN(c2ccccc2)CC1 (stereo not drawn) | -63.8
26 | COCCCNc1nc2ccccc2nc1NS(=O)(=O)c1ccc(C)c(C)c1 | -0.0603
27 | COc1cc(/C=N/NS(=O)(=O)c2ccc(C(C)(C)C)cc2)cc([N+](=O)[O-])c1O | 12.9
28 | CCCCN(C)C(=O)c1nc2ccccn2c1CN(C)Cc1csc(C)n1 | 17.8
29 | COc1ccc(NS(=O)(=O)c2ccc(C)c(C(=O)NCC(c3ccco3)N3CCCCC3)c2)cc1 (stereo not drawn) | -20.5
30 | C[C@@H](O)C1NC(=O)[C@H](CCCCN)NC(=O)c2cc([N+](=O)[O-])cc(F)c2NCCCC[C@@H](C(N)=O)NC1=O (stereo partly drawn) | 11.3
31 | NC(=O)c1sc2nc(-c3cccnc3)ccc2c1N | 16.4
32 | COc1cc(C(=O)Nc2nc3ccc4nc(C)sc4c3s2)cc(OC)c1OC | -5.34
33 | Cc1cc(C(=O)N2CCN(c3ncccn3)CC2)sc1-c1ccccc1 | -3.34
34 | Cc1ccc(NC(=O)C2CCCN(S(=O)(=O)c3c(C)noc3/C=C/N(C)C)C2)cc1F (stereo not drawn) | -1.44
35 | OCC1(c2cc(C(F)(F)F)n[nH]2)CCCCC1 | -0.781
36 | Cc1cccc(N2C(=O)NC(=O)/C(=C\c3ccc4c(c3)CCCN4Cc3ccccc3)C2=O)c1 | 5.53
37 | CCn1c(=O)n(CC)c2cc(NC(=O)C(C)c3ccccc3)c(Br)cc21 (stereo not drawn) | 7.4
38 | CCn1nc(C)c(/C=N\NC(=O)c2ccc3c(c2)OCO3)c1C | 7.11
39 | COc1cccc(N(CC(=O)Nc2cccnc2)S(C)(=O)=O)c1 | 15.3
40 | CCN(CC)C(=O)CSc1nc2ccc(NC(=O)CSc3nnc(COc4ccccc4C)n3C)cc2s1 | -7.84
41 | CC(NC(=O)C12CC3CC(CC(C3)C1)C2)C(=O)N/N=C/C1=C(N2CCOCC2)C(=C\c2cccc([N+](=O)[O-])c2)/CC1 (stereo not drawn) | 3.71
42 | Cc1ccc(C2Nc3cccc4cccc(c34)N2)cc1 | 3.91
